Test results published in PubChem BioAssay AID1477 (National Center for Advancing Translational Sciences (NCATS), 2009).
Fewer than 10 of roughly 230,000 compounds were called active. Inconclusive results, whose numbers are uncertain, are shown with a selection of clear calls. Calls follow the shape of the dose curve; as a rule, active = well fitted curve in the direction sought with a large enough effect; inconclusive = small, poorly fitted or top-dose-only effect, or effect the other way, or another doubt; inactive = no such curve, though single readings can be large or run the other way. No potency is given beside an inconclusive call; the fits are too rough.

target: Runt-related transcription factor 1 (Homo sapiens) + Core-binding factor subunit beta (Homo sapiens) (UniProt Q01196+Q13951); assay: qHTS Assay for Compounds Blocking the Interaction Between CBF-beta and RUNX1 for the Treatment of Acute Myeloid Leukemia; conditions: AlphaScreen CBFb-His/RUNX1-biotin binding, biochemical; series mostly up to 59.8 µM
Sequence of UniProt Q01196 (Q01196 whole entry, looked up): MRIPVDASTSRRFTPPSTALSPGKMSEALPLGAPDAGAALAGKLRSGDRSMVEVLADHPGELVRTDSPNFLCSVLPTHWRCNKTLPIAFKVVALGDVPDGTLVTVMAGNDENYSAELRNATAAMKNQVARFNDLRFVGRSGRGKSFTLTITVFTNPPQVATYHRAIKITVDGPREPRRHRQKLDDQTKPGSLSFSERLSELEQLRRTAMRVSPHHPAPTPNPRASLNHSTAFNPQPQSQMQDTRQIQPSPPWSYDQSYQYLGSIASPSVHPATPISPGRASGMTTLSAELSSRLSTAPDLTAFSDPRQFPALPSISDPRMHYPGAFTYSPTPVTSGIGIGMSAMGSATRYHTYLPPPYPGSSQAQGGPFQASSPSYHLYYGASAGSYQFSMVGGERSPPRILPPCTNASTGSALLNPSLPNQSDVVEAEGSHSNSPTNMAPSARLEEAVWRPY
Sequence of UniProt Q01196 (Q13951 whole entry, looked up): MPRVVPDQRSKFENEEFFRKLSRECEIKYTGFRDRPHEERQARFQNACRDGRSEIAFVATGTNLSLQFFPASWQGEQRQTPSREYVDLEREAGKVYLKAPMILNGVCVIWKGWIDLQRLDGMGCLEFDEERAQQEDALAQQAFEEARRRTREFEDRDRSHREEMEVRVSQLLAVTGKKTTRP
Outline: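 AlphaScreen proximity signal reports loss of binding between His-tagged CBF-beta and biotin-labelled RUNX1, each at 30 nM. Proteins are pre-associated for 20 minutes, compounds added for 15 minutes, then beads for 90 minutes, all at ambient temperature.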

Compound | Potency
CCc1ccc(CN(C)CC(=O)Nc2ccc3c(c2)CCC3)cc1 | inconclusive [activator, single point]
O=C(N/N=C/c1c[nH]c2ccccc12)c1sc2ccccc2c1Cl | inconclusive [inhibitor, partial curve]
O=C(Nc1cccc2ccccc12)N1CCN(c2ccccc2)CC1 | inactive
Oc1ccc(Cl)cc1/C=C/c1ccc2cccc(O)c2n1 | inactive
CC(C)=CCN1CCN(Cc2nc(C(C)C)cs2)CC1CCO (stereo not given) | inconclusive [activator, single point]
C[C@@H]1CC2(OC3C[C@@]4(C)C5=CC[C@H]6C(C)(C)C(O[C@@H]7OC[C@@H](O)[C@H](O)[C@H]7O)CC[C@@]67C[C@@]57CC[C@]4(C)C31)OC(O)C1(C)OC21 (stereo not given in full) | inactive
Nc1c([N+](=O)[O-])cc(-c2cnc[nH]2)cc1[N+](=O)[O-] | inactive
COc1ccc(N=C2NN=C(c3c(C)[nH]c4ccccc34)CS2)cc1 | inconclusive [inhibitor, single point]
CCOC(=O)c1cc(-c2ccccc2)nc2ccc(C)cc12 | inconclusive [activator, partial curve]
CCn1c2ccccc2c2cc(CN3CCN(Cc4cc(OC)ccc4O)CC3)ccc21 | inconclusive [inhibitor, single point]
O=C(NCCc1cn2ccsc2n1)c1cccs1 | inactive
Cc1cc(=O)oc2c(CN3CCC(C)CC3)c(O)c(Cl)cc12 | inconclusive [inhibitor, partial curve]
Cc1ccc(C(=O)NCCCNc2ccccc2[N+](=O)[O-])cc1 | inactive
C/C(=N\N(c1ccccc1)c1ccccc1)c1ccco1 | inconclusive [inhibitor, single point]
O=C(CN1C(=O)C2CC=CCC2C1=O)OCc1cc(=O)n2cc(Br)ccc2n1 (stereo not given) | inconclusive [inhibitor, single point]
C[C@@H](NC(=O)c1nc[nH]c1C(=O)N[C@@H](Cc1ccccc1)C(=O)OC(C)(C)C)c1ccccc1 | inactive
NC(=O)NC(=O)COC(=O)CCCSc1nc2ccccc2s1 | inactive
Cc1ccccc1C(=O)Nc1ccc2c(C#N)c3nc4ccccc4nc3n2c1 | inconclusive [inhibitor, partial curve]
Cc1nn(Cc2ccccc2)c(C)c1N | inactive
CCOc1ccc(-c2nc3ccc(-c4nc5ccc(N6CCN(C)CC6)cc5[nH]4)cc3[nH]2)cc1 | inconclusive [inhibitor, single point]
C=CCn1c(C)c(C(C)=O)c(N2CCN(C(c3ccccc3)c3ccccc3)CC2)nc1=S | inconclusive [inhibitor, single point]
CN(C)/N=C/c1ccc([N+](=O)[O-])cc1[N+](=O)[O-] | inconclusive [inhibitor, single point]
COc1ccccc1C(=O)NC(=S)/C=C1/N(C)c2ccccc2C1(C)C | inconclusive [activator, full curve]
O=S(=O)(NCc1csc(-c2cccnc2)n1)c1ccc(Cl)s1 | inconclusive [inhibitor, single point]

Compound | Potency
CCOc1ccccc1C(=O)Nc1ccsc1C(=O)OC | inconclusive [activator, partial curve]
CC1CCCCC1NC(=O)C1Cc2ccccc2CN1S(C)(=O)=O (stereo not given) | inconclusive [inhibitor, single point]
CC(C)CN(C(=O)CSc1nn(-c2ccc(Cl)cc2)c(=S)s1)C1CCS(=O)(=O)C1 (stereo not given) | inconclusive [inhibitor, partial curve]
O=C(O)c1cccc(-n2nnnc2SCc2ccccn2)c1 | inactive
O=C(O)CNC(=O)CC1S/C(=N/N=C2/NC(=O)CS2)NC1=O (stereo not given) | inconclusive [inhibitor, partial curve]
O=[N+]([O-])c1cc(-n2cnnn2)ccc1N1CCC(Cc2ccccc2)CC1 | inconclusive [inhibitor, partial curve]
COc1ccc(N2CCC(CNC(=O)Nc3cccc(OC)c3)C2)cc1 (stereo not given) | inconclusive [inhibitor, single point]
COC1=CC(=O)O[C@@H](/C=C/c2ccccc2)C1 | inactive
N#C/C(=C/c1ccco1)C(N)=S | inconclusive [inhibitor, single point]
CCN1CCCc2cc(CN(CCN3CCOCC3)C(=S)Nc3cccc(Cl)c3)ccc21 | inconclusive [inhibitor, single point]
O=C1CCCC/C1=C\Nc1ccc(O)cc1 | inconclusive [inhibitor, single point]
Cc1cc(C(=O)CSc2nnc(-c3ccco3)o2)c(C)n1CC1COc2ccccc2O1 (stereo not given) | inconclusive [inhibitor, single point]
O=C(Nc1ccccc1)/C(=C\c1cccs1)NC(=O)c1ccccc1 | inactive
Cc1csc(SCC(=O)Nc2ccc(S(=O)(=O)N3CCCC3)cc2)n1 | inactive
Cc1ccccc1NCC(=O)N/N=C/c1c[nH]c2ccccc12 | inconclusive [inhibitor, single point]
C=CCNC(=S)N/N=C(\C)c1ccccn1 | inconclusive [inhibitor, full curve]
CS(=O)(=O)N(CCc1ccccc1)CC(=O)NCc1ccccn1 | inconclusive [inhibitor, single point]
NC(=S)N/N=C/c1ccc(-c2ccc([N+](=O)[O-])cc2)o1 | inconclusive [inhibitor, single point]
COc1cccc(OCC(O)CN2CCN(c3ccc(Cl)cc3)CC2)c1 (stereo not given) | inconclusive [activator, full curve]
Cc1ccc(Cc2cnc(NC(=O)/C(C#N)=C/c3ccc(-c4ccccc4[N+](=O)[O-])o3)s2)cc1 | inactive
Cc1cccc(C2=NN(c3ccccc3)[C@@H](C(=O)N3CCOC3=O)[C@@H]2c2ccc([N+](=O)[O-])cc2)c1 | inconclusive [inhibitor, single point]
Cc1ccc(S(=O)(=O)Nc2ccc(N3CCOCC3)nc2)cc1 | inactive
Cc1occc1C(=O)Nc1nnc(C(F)(F)F)s1 | inactive
CC[C@@H]1CC=C[C@H]2[C@H]1C(=O)N(Cc1ccccc1)[C@H]2c1cc(C)ccc1F | inconclusive [activator, partial curve]

Compound | Potency
CCOC(=O)CSc1nc2c(c(-c3ccc(C)o3)c1C#N)CCCC2 | inconclusive [activator, partial curve]
CCC1=NN(C(=O)C(=O)Nc2ccc(Br)cc2)C(O)(C(F)(F)F)C1 (stereo not given) | inactive
COc1ccccc1C/C(N)=N/OC(=O)COc1cccc(C)c1 | inconclusive [activator, single point]
CN(C)c1ccc(/C=C(/C(=O)c2ccc(Cl)cc2Cl)n2cncn2)cc1 | inactive
c1ccc(-c2csc(NNC3=NCCCCC3)n2)cc1 | inactive
c1ccc(-c2nc3ccccc3o2)nc1 | inactive
CC[n+]1c(C)sc2c(C)cc(C)cc21 | inactive
COCCNC(=S)NN=C1CCC(c2ccccc2)CC1 (stereo not given) | inconclusive [activator, partial curve]
O=C(Cc1cn2ccsc2n1)Nc1nc2c(s1)CN(Cc1ccccc1)CC2 | inconclusive [inhibitor, single point]
COc1cc(NC(=O)C2CCCN(S(=O)(=O)c3cccc4nsnc34)C2)cc(OC)c1 (stereo not given) | inactive
COc1cc(-n2c(=S)[nH]c3ccc(C)cc3c2=O)c(Cl)cc1Cl | inconclusive [inhibitor, single point]
COc1ccccc1NC1=NC(c2ccc(Cl)cc2)N=C(N)N1 (stereo not given) | inconclusive [activator, partial curve, poor fit]
CC(NC(=O)COC(=O)CSCc1ccccc1)c1ccccc1 (stereo not given) | inconclusive [activator, partial curve, poor fit]
COc1ccc(C2NC(=S)NC3=C2CCc2cc(OC)ccc23)cc1 (stereo not given) | inconclusive [inhibitor, single point]
COc1cc2c(cc1OC)CN(C(=O)CSc1nc3[nH]ncc3c(=O)n1-c1ccccc1)CC2 | inactive
Cc1ccccc1NC1=C(C(=O)c2ccccc2)N(C)S(=O)(=O)c2ccccc21 | inconclusive [inhibitor, partial curve]
CCn1nc(NC(=O)C2CCCO2)c2cc3cccc(C)c3nc21 (stereo not given) | inconclusive [activator, partial curve]
COC1=C(Nc2ccc(O)cc2)C(=O)c2ccccc2C1=O | inconclusive [inhibitor, partial curve]
Cc1sc(-n2c(C)cc(/C=C3\SC(=S)NC3=O)c2C)c(C#N)c1C | inconclusive [inhibitor, single point]
O=C(OCC#Cc1c(COC(=O)c2ccccc2)nnn1Cc1ccccc1)c1ccccc1 | inconclusive [activator, partial curve]
CC1=NN(c2ccccc2)C(=O)/C1=C\c1cc(C)n(-c2ccccc2)c1C | inconclusive [inhibitor, single point]
CCSc1nnc(NC(=O)CSc2nnc(CNC(=O)c3ccc(OC)c(OC)c3)o2)s1 | inconclusive [inhibitor, partial curve]
